Data: a compilation of properties of binary mixtures (doi:10.1016/j.molliq.2020.112507)
The densities may have been worked out from excess volumes.

Assay: xn = mol fraction of the nth substance listed
Conditions: 100 kPa

CCCC[n+]1ccn(C)c1.COS(=O)(=O)[O-] + CCCC#N
x1 = 1
Conditions | mass density [kg/m3]
298.15 K | 1212.1
308.15 K | 1205.4
313.15 K | 1202

CCCC#N + CCCC[n+]1ccn(C)c1.COS(=O)(=O)[O-]
mass density [kg/m3]
Conditions | x2 = 0 | x2 = 0.1117 | x2 = 0.2128 | x2 = 0.3714 | x2 = 0.4263 | x2 = 0.5115 | x2 = 0.6345 | x2 = 0.7161 | x2 = 0.8065 | x2 = 0.9072
298.15 K | 786.3 | – | 963.9 | 1046 | 1068.5 | 1099.1 | 1135.8 | – | 1176.5 | 1196
303.15 K | 781.6 | 888 | 959.8 | 1042.2 | 1064.8 | – | 1132.2 | 1152.9 | – | 1192.7
308.15 K | 777 | 883.8 | 955.8 | 1038.4 | 1061 | – | 1128.6 | – | 1169.6 | 1189.3
313.15 K | 772.3 | 879.6 | 951.8 | 1034.6 | – | 1088 | – | 1145.8 | 1166.1 | 1185.9
